# Several values for one entry are separate records, joined by “and”; a condition that tells them apart may be missing. Identical values can stand only once. The whole screen tested about 350,000 compounds, of which about 9,900 (2.8%) were called active. The inconclusive results got no clear call from the source; some entries with a clear call stand among them for comparison. The call rests on the fitted dose curve; in most records, active means well fitted activation curve with a large enough effect; inconclusive means small, poorly fitted or top-dose-only effect; inactive means no such curve, though single readings can be large or run the other way. Where the call is inconclusive, the potency comes from a doubtful curve fit.
# Assay: A quantitative high throughput screen for small molecules that induce DNA re-replication in MCF 10a normal breast cells. Further: nearly all actives have a fitted effect of over 50% in size. On activity, positive = re-replication: % of control where 0% means no effect.
# Details: MCF 10A DNA re-replication, Hoechst nuclear intensity, 48 h; activity, positive = re-replication: at 46.1 µM (top of the series)
# Potency means the concentration at half of the fitted maximal effect; tags describe the fitted curve by direction and shape.
Compound,"activity, positive = re-replication",Potency
Cn1c(=O)c2c(nc(N3CCN(c4ccccn4)CC3)n2Cc2ccc(Cl)cc2Cl)n(C)c1=O,inactive: -0.373%,–
Nc1ncnc2c1ncn2[C@@H]1O[C@H](CNCc2ccccc2OCC(=O)N2CCCCC2)[C@@H](O)[C@H]1O,inactive: 14.2%,–
OCCN1CCN(CC(O)COc2ccc(Cl)cc2)CC1 (stereo unspecified),–,"inconclusive: 2.59 µM [activator, partial curve, poor fit]"
COc1ccccc1NC(=O)NNC(=O)c1ccc2c(c1)NC(=O)C(C)(C)O2,–,"inconclusive: 29.1 µM [activator, single point]"
COC(=O)CC1(C(=O)OC)Oc2ccc(Br)cc2C(=O)N1c1cc(Cl)c(Cl)cc1Cl (stereo unspecified),inactive: -8.28%,–
COc1ccc(CCCc2nnc(SCc3nc4ccccc4c(=O)[nH]3)n2C)cc1C,inactive: 16.9%,–
Cc1cc(C)c(S(N)(=O)=O)c(C)c1-n1cnnn1,inactive: 18.9%,–
O=C(NC(=S)N1CCN(C/C=C/c2ccccc2)CC1)c1cccnc1,inactive: 3.46%,–
Cc1ccc(C(=O)c2cc([N+](=O)[O-])ccc2N2CCN(C)CC2)cc1,–,active: 16.4 µM
Cc1cc(C)c(C#N)c(SCC(=O)Nc2cccc(S(=O)(=O)N3CCCC3)c2)n1,–,"inconclusive: 20.6 µM [activator, single point]"
COCCCC1CCN(C(=O)CCc2nnc(CCCCc3ccccc3)o2)CC1,inactive: 4.02%,–
CCN1CCN(Cc2coc3ccc(C)cc3c2=O)CC1,–,"inconclusive: 2.31 µM [activator, full curve]"
Nc1cccc(Nc2nc(OC(C(F)(F)F)C(F)(F)F)nc(OC(C(F)(F)F)C(F)(F)F)n2)c1,–,"inconclusive: 22.4 µM [activator, single point]"
O=C(c1ccc(N2CCN(C3CC(=O)N(Cc4cccs4)C3=O)CC2)cc1)c1cccnc1 (stereo unspecified),inactive: 0.376%,–
CCOC(=O)c1c(C)[nH]c(-c2csc(N)n2)c1C,–,active: 16.4 µM
NC(=O)c1ncn([C@@H]2O[C@H](CNCc3ccc(OCC(=O)Nc4nccs4)cc3)[C@@H](O)[C@H]2O)n1,–,"inconclusive: 29.1 µM [activator, partial curve, poor fit]"
Cc1ccc(-c2[nH]ncc2/C=C(\C#N)C(=O)NC2CCCCC2)cc1,–,"inconclusive: 29.1 µM [activator, partial curve, poor fit]"
Clc1ccc(CN2CCc3c([nH]c4ccccc34)C2)cc1Cl,inactive: 8.24%,–
O=c1cc(O)c(-c2ccccc2Cl)c(Cl)[nH]1,–,"inconclusive: 32.6 µM [activator, single point]"
O=C(Cc1ccc(Cl)cc1)Nc1ccc(CN2CCCCC2)cc1,–,"inconclusive: 20.6 µM [activator, single point]"
Cc1c(O)cccc1C(=O)N[C@@H](CSc1ccccc1)[C@H](O)CN1C[C@H]2CCCC[C@H]2C[C@H]1C(=O)NC(C)(C)C,–,"inconclusive: 11.9 µM [activator, partial curve] and inconclusive: 259 nM [activator, full curve, poor fit]"
COC(=O)c1c(-c2c(Cl)cccc2Cl)noc1NC(=O)N(C)C,–,"inconclusive: 0.517 µM [activator, full curve, poor fit]"
CCOC(=O)Nc1sc2c(c1C#N)CCCC2,inactive: 14.5%,–

Compound,"activity, positive = re-replication",Potency
COCc1cc(=O)n2[nH]c(C)c(-c3ccccc3)c2n1,–,"inconclusive: 32.6 µM [activator, partial curve, poor fit]"
CC(C)C[C@H](NC(=O)N1CCn2c1nc1ccccc12)C(=O)NC1CCCCC1,inactive: -2.67%,–
Cc1cc2cc(CNC(=O)Cc3cccs3)ccc2n1C,inactive: -5.03%,–
CCCCc1cc(=O)oc2cc(OC(C)C(=O)NCCN3CCOCC3)c(Cl)cc12 (stereo unspecified),–,"inconclusive: 23.1 µM [activator, partial curve, poor fit]"
O=C1CC2(CCN1)CCN(Cc1ccccc1)CC2,inactive: -2.61%,–
Cc1ccc(-c2nc3ccccc3c(=O)n2NC(=O)COc2ccccc2)cc1,inactive: -0.573%,–
CCOC(=O)CSc1nc2c(sc(=S)n2-c2ccc(CC)cc2)c(=O)[nH]1,inactive: 3.31%,–
COc1cccc(SCc2noc(C(=O)NCCCN3CCOCC3)c2C(=O)NCCCN2CCOCC2)c1,inactive: 6.25%,–
Cc1cccc(-c2nc(CN3CCCC(C(=O)NC4CCCCC4)C3)c(C)o2)c1 (stereo unspecified),–,"inconclusive: 20.6 µM [activator, partial curve, poor fit]"
CCOC(=O)c1c(/N=C/N(C)C)sc(/C=N/Nc2ccccc2)c1-c1ccccc1,–,active: 20.6 µM
O=C(CSc1nnc(-c2cccnc2)n1Cc1ccco1)N1c2ccccc2Sc2ccccc21,inactive: 8.87%,–
COc1cccc(CN(C)C(=O)c2cc(-c3ccc(OC)c(OC)c3)nc3ccccc23)c1,–,"inconclusive: 14.6 µM [activator, partial curve]"
Cc1ccc(NC(=O)CSc2nc3c(c(=O)[nH]2)CCCC3)cc1C,–,"inconclusive: 6.51 µM [activator, partial curve, poor fit]"
CCc1cc(OCCCCNCc2ccccc2)ccc1Cl,–,"inconclusive: 20.6 µM [activator, single point]"
CCC(=O)Nc1ccc(-c2ccc(NC(=O)CC)c(OC)c2)cc1OC,inactive: -1.9%,–
CCSc1ccc2c(c1)N(CCCN1CCN(C)CC1)c1ccccc1S2,–,"inconclusive: 18.4 µM [activator, single point]"
COC(=O)Nc1ccc2c(c1)N(C(=O)CCN(C)C)c1ccccc1CC2,inactive: -0.253%,–
OC(COc1cccc2ccccc12)CN1CCN(c2ccccc2Cl)CC1 (stereo unspecified),–,active: 18.4 µM
CC(=O)c1ccsc1-c1c(C)cc2oc(=O)cc(-c3ccccc3)c2c1C,–,"inconclusive: 29.1 µM [activator, single point]"
c1ccc(-c2ccc(OCCCn3cncn3)cc2)cc1,inactive: -45.9%,–
COc1ccc(C(N)=O)c(OCC(=O)Nc2cc(C)on2)c1,–,"inconclusive: 0.731 µM [activator, partial curve, poor fit]"
O=C(c1ccc(COc2ccccc2Br)o1)N1CCN(c2ccccn2)CC1,–,"inconclusive: 23.1 µM [activator, single point]"
CSc1ccccc1NC(=O)CN(C)C(=O)COc1ncnc2ccccc12,inactive: -2.27%,–
